Data taken from PubChem BioAssay AID1768 (National Center for Advancing Translational Sciences (NCATS), 2009).
About 620 (0.23%) of roughly 270,000 compounds were called active. The shares of active, inactive and inconclusive entries below differ from those in the screen. Calls come from the whole dose curve; as a rule, active = well fitted inhibition curve with a large enough effect in the polarisation, with a control signal flat (not every such curve was filed as active); inconclusive = small, poorly fitted or top-dose-only effect, or effect the other way, or a change in a side signal; inactive = no such curve, though single readings can be large or run the other way; the % refers to the polarisation. A potency beside an inconclusive call is a rough fit, not a confirmed value. “Side channel” marks fits to a control or component signal instead of the main read-out.

Target: Menin (Homo sapiens) (UniProt O00255)
UniProt O00255, sequence (O00255 whole entry, looked up): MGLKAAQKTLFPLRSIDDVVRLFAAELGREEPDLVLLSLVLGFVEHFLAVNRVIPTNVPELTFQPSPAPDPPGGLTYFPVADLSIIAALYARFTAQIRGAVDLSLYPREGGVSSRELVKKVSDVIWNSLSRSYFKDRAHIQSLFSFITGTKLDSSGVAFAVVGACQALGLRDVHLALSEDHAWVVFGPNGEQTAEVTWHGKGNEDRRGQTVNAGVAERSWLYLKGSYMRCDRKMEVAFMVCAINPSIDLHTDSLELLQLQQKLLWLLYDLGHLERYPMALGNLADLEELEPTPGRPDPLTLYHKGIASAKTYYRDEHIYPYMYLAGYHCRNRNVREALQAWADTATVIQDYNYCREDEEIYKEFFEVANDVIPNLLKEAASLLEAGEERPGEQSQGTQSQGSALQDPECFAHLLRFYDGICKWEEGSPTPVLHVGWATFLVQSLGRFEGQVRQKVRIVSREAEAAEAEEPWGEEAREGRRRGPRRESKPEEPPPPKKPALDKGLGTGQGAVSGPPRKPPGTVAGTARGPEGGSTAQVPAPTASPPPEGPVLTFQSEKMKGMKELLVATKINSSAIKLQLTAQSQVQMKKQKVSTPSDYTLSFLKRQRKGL
Test: qHTS Assay for Inhibitors Targeting the Menin-MLL Interaction in MLL Related Leukemias: Competition With Texas Red Labeled MLL-derived Mutant Peptide
Conditions: fluorescence polarization; series mostly up to 61.6 µM
Potency is the fitted concentration of half-maximal effect; tags give direction and shape of the fitted curve or compound fluorescence and quenching.

Potency, inconclusive:
C=CCOc1ccc(CN(C)CC(O)COc2ccc(CCC(C)=O)cc2)cc1 (stereo not given) 6.31 µM [inhibitor, partial curve, poor fit]
Cc1ccccc1CN1C[C@@H]2C[C@@H](c3cn[nH]c3-c3ccc(F)cc3)N3CCC[C@@]23C1=O 11.2 µM [fluorescent, side channel, full curve, poor fit]
O=[N+]([O-])c1ccc(C2=Nc3cc(Cl)ccc3OC2)cc1 22.4 µM [quencher, side channel, partial curve]
Cc1ccc(-c2ccc(=O)n(Cc3cccc(Br)c3)n2)cc1 14.1 µM [inhibitor, partial curve]
C=C(C)Cc1c(C)c(C#N)c2nc3ccccc3n2c1N1CCCCC1 3.55 µM [fluorescent, side channel, full curve]
Cc1ccc(NC(=S)c2nc3ccccc3[nH]2)cc1 10 µM [quencher, side channel, partial curve]
O=C(N/N=C/c1c[nH]c2ccc(Br)cc12)c1ccc2c(c1)OCO2 35.5 µM [quencher, side channel, single point]
CCCCCCC(=O)Nc1nc(C)c(-c2csc(Nc3ccc(Cl)cc3)n2)s1 3.16 µM [quencher, side channel, full curve]
O=P(COCCOCCOCP(=O)(c1ccccc1)c1ccccc1)(c1ccccc1)c1ccccc1 1 µM [fluorescent, side channel, full curve]
CN1c2ccc([N+](=O)[O-])cc2C(C)(C)C12C=Cc1cc(C(=O)O)ccc1O2 (stereo not given) 20 µM [quencher, side channel, partial curve, poor fit]
O=S(=O)(c1cccc(Cl)c1)N1CCCC1 0.708 µM [inhibitor, full curve, poor fit]
N#Cc1c(-c2ccccc2)cc(C2CC2)nc1N 39.8 µM [inhibitor, partial curve]
Cc1ccccc1C(=O)NC1CCCN(Cc2ccccc2F)C1 (stereo not given) 20 µM [inhibitor, partial curve]
CC1=CC2=NC(=O)/C(=C\c3ccc(OC(=O)c4ccco4)cc3)C(=N)N2O1 39.8 µM [inhibitor, single point]
O=c1c2c(nc3cc(-c4ccccc4Cl)[nH]n13)CCS2 11.2 µM [quencher, side channel, partial curve]
